The campaign covered roughly 310,000 compounds. About 2,200 (0.71%) showed an effect of 50% or more. Effects have a minus sign here. Some of the results follow.
target: human ether-à-go-go-related gene (hERG) potassium channel (human, UniProt Q12809); assay: primary screen, population patch clamp on CHO cells stably expressing hERG
Sequence (Q12809 whole entry, looked up): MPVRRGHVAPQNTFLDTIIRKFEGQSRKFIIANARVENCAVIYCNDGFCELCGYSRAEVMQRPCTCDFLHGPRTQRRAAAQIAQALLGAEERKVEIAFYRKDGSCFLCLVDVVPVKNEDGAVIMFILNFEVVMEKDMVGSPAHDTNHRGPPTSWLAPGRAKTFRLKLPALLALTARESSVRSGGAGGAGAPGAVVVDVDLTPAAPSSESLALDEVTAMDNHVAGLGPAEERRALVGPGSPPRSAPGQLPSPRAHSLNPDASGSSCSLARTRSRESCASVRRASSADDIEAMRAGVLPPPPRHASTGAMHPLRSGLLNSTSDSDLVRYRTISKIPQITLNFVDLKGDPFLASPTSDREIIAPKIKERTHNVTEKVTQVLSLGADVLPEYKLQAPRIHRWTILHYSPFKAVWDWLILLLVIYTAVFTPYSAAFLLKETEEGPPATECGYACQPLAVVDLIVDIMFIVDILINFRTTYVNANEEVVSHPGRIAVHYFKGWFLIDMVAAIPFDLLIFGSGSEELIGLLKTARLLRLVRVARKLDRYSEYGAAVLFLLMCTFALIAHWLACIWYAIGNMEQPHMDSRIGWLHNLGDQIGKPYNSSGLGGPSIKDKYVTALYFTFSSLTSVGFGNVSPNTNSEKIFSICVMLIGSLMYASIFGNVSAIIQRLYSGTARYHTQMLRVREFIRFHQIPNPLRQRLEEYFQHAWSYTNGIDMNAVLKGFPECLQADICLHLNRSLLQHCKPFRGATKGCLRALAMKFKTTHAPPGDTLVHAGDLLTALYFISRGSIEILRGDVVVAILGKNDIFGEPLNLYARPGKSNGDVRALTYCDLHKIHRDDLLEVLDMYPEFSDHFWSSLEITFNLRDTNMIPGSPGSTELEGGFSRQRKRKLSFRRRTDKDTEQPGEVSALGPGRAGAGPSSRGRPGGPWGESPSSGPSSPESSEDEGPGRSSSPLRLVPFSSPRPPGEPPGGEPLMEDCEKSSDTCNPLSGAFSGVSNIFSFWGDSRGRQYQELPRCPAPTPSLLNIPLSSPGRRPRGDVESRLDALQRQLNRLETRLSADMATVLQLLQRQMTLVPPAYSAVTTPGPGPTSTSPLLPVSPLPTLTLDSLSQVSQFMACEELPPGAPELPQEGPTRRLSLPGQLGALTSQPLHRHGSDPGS

SMILES | hERG current change (%, negative = inhibition) at 1uM [%]
COc1ccc(CN2[C@@H](CC(C)=O)c3ccc(/C=C/C(C)=O)cc3S2(=O)=O)cc1 | -0.639
O=C(CSc1ccccc1)NCC(c1ccco1)N1CCCCC1 (stereo not shown) | 5.82
Cc1ccc2nc(NCCCNC(=O)c3cnccn3)c(C#N)cc2c1 | 8.86
Cc1ccc2oc(=O)c3cnn(CC(=O)N(CCC(C)C)Cc4ccco4)c3c2c1 | 0.634
CC(Sc1nc(-c2ccccc2)cc(=O)[nH]1)C(=O)O (stereo not shown) | 5.94
CCCCNC(=O)c1c(CSc2ccc(Cl)cc2)noc1C(=O)NCc1ccccc1 | 9.35
N#Cc1cc2c(nc1SCC(=O)NCc1ccc3c(c1)OCO3)CCCCC2 | 1.91
Cc1nnc2ccc(N3CCN(C(=O)c4ccccc4)CC3)nn12 | 5.47
COc1cccc(CNC(=O)C2CCC(CNc3c(N4CCC(C)CC4)c(=O)c3=O)CC2)c1 (stereo not shown) | 5.65
COc1ccc(CCNC(=O)CNS(=O)(=O)c2cccs2)cc1OC | 9.65
Cc1cc(C(C)(C)C)c(O)c(C)c1CC1=NCCN1.Cl | 7.93
O=C(NCCNc1nccc(C(F)(F)F)n1)c1cccc(C(F)(F)F)c1 | 7.63
COc1ccccc1C(=O)NC(=O)COC(=O)c1ccc(NC(=O)CC#N)cc1 | 14.2
CN1C(=O)c2ccccc2C(C(=O)O)C1c1cn(C)c2ccccc12 (stereo not shown) | 5.92
O=C(OCC(=O)N1CCN(C(=O)c2ccco2)CC1)c1ccccc1NCCO | 12.6
Cc1cc(OCC(=O)Nc2ccc3c(c2)OCCO3)cc(C)c1Cl | -1.09
c1ccc(Nc2nc(-c3ccncc3)nc3ccccc23)cc1 | 2.91
COC(=O)COc1cccc(NC(=O)c2cc(OC)cc(OC)c2)c1 | 2.89
CN1CCN(c2nc(-c3ccncc3)nc3ccccc23)CC1 | -64.9
COc1cc(/C=C/c2nc(N)nc(-c3ccccc3O)n2)cc(OC)c1OC | 4.31

SMILES | hERG current change (%, negative = inhibition) at 1uM [%]
CCOC(=O)c1cccnc1SCC(=O)NCc1ccccc1 | -1.84
Cl.O=S(=O)(NCCc1ccccn1)c1cccs1 | 9.91
COc1cc(C(=O)NCC(=O)N/N=C/c2cccs2)cc(OC)c1OC | 11.3
CN(C(=O)COC(=O)c1ccc[nH]c1=O)C1CCCCC1 | 16
CCC(=O)N(Cc1cc2ccc(C)cc2[nH]c1=O)c1ccccc1OC | 14
CCCCCCC(O)(CCN1CCCCC1)c1ccccc1.Cl (stereo not shown) | -17.1
Cn1cc(S(=O)(=O)N2CCCC2)cc1C(=O)NCCc1ccccc1 | 3.69
CSCCC(=O)N1CCC(CCC(=O)NC2CC2)CC1 | 16.3
O=C(NNC(=O)c1cnccn1)c1ccc(Cl)c(Cl)c1 | 8.46
Cc1cccc(N(C(=O)c2nsc(Cl)c2Cl)C(C(=O)NC2CCCC2)c2ccc(O)cc2)c1C (stereo not shown) | 10.1
COC(=O)c1cc(NC(=O)c2cc(C)oc2C)cc(C(=O)OC)c1 | 12.6
Fc1cccc(CN2CCN(Cc3nc(CCc4ccccc4)no3)CC2)c1 | 3.49
C=CCNC(=O)COC(=O)c1cccnc1Nc1ccccc1F | 9.25
O=C(OCc1nnc(-c2ccccc2)o1)c1ccc(Cl)cc1 | -6.38
c1ccc2c(c1)[nH]c1nc3nncn3nc12 | 12.2
Cc1cc(C(=O)CSc2nc3ccccc3c(=O)[nH]2)c(C)n1CC1CCCO1 (stereo not shown) | 2.89
CC(C#N)N1CCN(S(=O)(=O)c2ccc3c(c2)CCC3)CC1 (stereo not shown) | 7.67
CC(C)c1cc(C(=O)N/N=C/C=C/c2ccccc2)n[nH]1 | 14.5
CCc1cc(C(=O)N2CCCC(Nc3ccc(F)c(F)c3)C2)n(C)n1 (stereo not shown) | 3.56
COc1ccc(/C=C(\C#N)C(=O)NCC(c2ccc(F)cc2)N2CCOCC2)cc1 (stereo not shown) | 6.99

SMILES | hERG current change (%, negative = inhibition) at 1uM [%]
O=C1CC(c2cccnc2)=NN1c1ccc(Cl)cc1Cl | 10.9
Cc1ccc(-c2nn(CCC#N)cc2C(=O)O)cc1C | 5.73
COc1ccccc1C1C2C(=O)N(c3ccccc3)C(=O)C2ON1c1ccccc1 (stereo not shown) | 4.23
COc1ccc(/C=C/CN2CCCC(C(=O)c3cc(F)ccc3F)C2)cc1 (stereo not shown) | -19.8
Cc1cc(C)c(NC(=O)C2CCN(C(=O)c3ccco3)CC2)c(C)c1 | 20.7
COc1cccc2cc(C(=O)Nc3ccccc3C)/c(=N/O)oc12 | -4.05
N#C/C(=C/c1cccc([N+](=O)[O-])c1)C(=O)Nc1ccccc1O | 16.4
CCc1ccc(C(=O)C(C)OC(=O)Cc2n[nH]c(=O)c3ccccc23)cc1 (stereo not shown) | 9.05
CCc1c(C#N)c(SCCC(=O)Nc2ccc(OC)cc2)nc2c1C(=O)CC(C)(C)C2 | 6.82
O=C(NNC(=S)NCCCN1CCOCC1)c1ccncc1 | 16.6
CCOC(=O)Cc1csc(N/N=C/c2ccc(C(F)(F)F)cc2)n1 | 6.32
CC(C)(C)NCC(O)COc1ccccc1C1CCCC1.O=S(=O)(O)O (stereo not shown) | 4.61
CC(=O)N1CCN(CCN=Cc2c(O)n(-c3ccc(F)cc3)c(=S)[nH]c2=O)CC1 | 16.4
O=C(NCC(c1cccnc1)N1CCOCC1)NC1CCCCC1 (stereo not shown) | 13.9
COc1ccc(/C=C/C(=O)NCc2cnn(C)c2C)cc1COc1ccc(Br)cc1 | 11.2
CN1c2ccsc2C(=O)/C(=C\Nc2cccc(C(F)(F)F)c2)S1(=O)=O | 10.9
CC(=O)CSc1ccc(S(=O)(=O)N2CCN(C)CC2)cn1 | 3.46
COc1ccc(NS(=O)(=O)c2cccc(C(=O)N/N=C/c3ccc(O)cc3)c2)cc1 | 6.08

Source: PMC4336329 (PLoS ONE, 2015)
